Test results reported in the supplement of paper PMC3334620.
Whole data set: some 33,000 sequences, median “E-score (-0.5 to 0.5)” near -0.054, cut for the highest 2% near 0.35. Some of the results follow.

target: T1, Stb5 (UniProt P38699); assay: PBM E-score (8-mer binding enrichment) (E-score (-0.5 to 0.5)); higher = stronger / more preferred TF binding; most listed sequences are background and not binding sites; details: protein concentration: 200 nM; construct: GST-full length
T1 sequence: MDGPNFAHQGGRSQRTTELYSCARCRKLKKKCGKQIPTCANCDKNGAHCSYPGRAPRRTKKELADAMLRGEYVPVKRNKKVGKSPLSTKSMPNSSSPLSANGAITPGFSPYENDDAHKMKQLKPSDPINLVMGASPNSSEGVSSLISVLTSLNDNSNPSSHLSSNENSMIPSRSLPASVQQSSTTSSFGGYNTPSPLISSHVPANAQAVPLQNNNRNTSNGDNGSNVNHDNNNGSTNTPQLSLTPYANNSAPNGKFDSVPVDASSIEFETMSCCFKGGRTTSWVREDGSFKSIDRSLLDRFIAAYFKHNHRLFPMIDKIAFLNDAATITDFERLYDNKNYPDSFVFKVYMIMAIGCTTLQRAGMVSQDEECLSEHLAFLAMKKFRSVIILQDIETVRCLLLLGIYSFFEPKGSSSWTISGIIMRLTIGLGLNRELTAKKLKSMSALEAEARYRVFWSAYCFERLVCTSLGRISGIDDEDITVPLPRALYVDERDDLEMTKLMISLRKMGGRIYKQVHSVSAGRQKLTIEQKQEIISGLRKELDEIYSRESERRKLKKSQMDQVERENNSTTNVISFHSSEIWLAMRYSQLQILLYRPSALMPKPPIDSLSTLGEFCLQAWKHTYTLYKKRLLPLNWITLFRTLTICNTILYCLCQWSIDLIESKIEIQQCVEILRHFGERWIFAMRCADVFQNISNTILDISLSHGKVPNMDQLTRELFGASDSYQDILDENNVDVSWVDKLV
Procedure, shortened: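 Universal all-10-mer Agilent arrays, fresh or stripped once, were converted to double-stranded form by primer extension. GST-tagged yeast transcription factors from PURExpress in vitro transcription/translation, full-length or DNA-binding domain only, were applied at about 100-200 nM and detected with fluorescent anti-GST. After masliner normalisation, the Universal PBM Analysis Suite scored each ungapped eight-base word together with its reverse complement by E-score.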

Sequence	PBM E-score
AGCATTCA	-0.216
AAAGGCCC	0.274
ATCCATAA	0.0068
AGTGATTC	-0.00858
ACGGTAAT	0.342
ACATCAGA	-0.143
CCGTCAAG	0.215
CAACGGGG	0.297
ATCACCAT	0.00627
AACAATAA	0.0661
CATTTAAC	0.167
CTCGCCAC	-0.0248
CCCAAGGA	-0.0196
ATTCACCG	0.346
GTATCGAC	-0.0532
AACCATGT	-0.0973
GCAACACA	-0.114
ACCGAATG	0.165
AGTCTAAC	-0.0953
AAACGCCG	0.449
GAGAGGGC	-0.0955
ACCTCTGA	-0.0237

Sequence	PBM E-score
AGGCTCTC	-0.369
CCCTAGTC	-0.303
GAAGGCTC	-0.13
CTGACGCA	-0.0314
CCACCGTA	0.0843
CTAAGAAC	0.00444
TCTTCGAA	-0.237
CACATGAA	-0.263
ATAAGAAC	0.0159
CAGCACGG	0.0117
ACGAGTAG	0.00828
AACTTATA	0.0508
ATCAGCGG	0.293
AATTTGCC	0.098
CTTCGACC	-0.053
ATACCAAT	-0.00644
GATTAGCC	0.0483
CAATGCCG	0.334
AAATACGG	0.0747
TATTCTCA	-0.192
TACGTCAA	-0.188
CCTGAGCG	-0.0867

Sequence	PBM E-score
AACTAATG	-0.132
ATTCCTTA	-0.157
ACCATTAA	0.0254
AACCCAGA	-0.177
GCAGTGAA	-0.0884
AACGGTGT	0.425
CACACATA	-0.187
CAGTACTC	-0.23
CTGTGCAA	-0.269
CCGTGACC	0.13
CATAGTAC	0.161
GGTTCCGA	0.126
GAACCCTC	-0.0966
CGAACTAG	0.023
CGTCTATC	0.119
CAGTTTCA	-0.266
CTTGTAGA	-0.179
GTACCCAC	0.11
GTAACATA	0.131
CCACTATC	-0.0181
GTTTGCTA	-0.0139
AGGCACGC	-0.126

Sequence	PBM E-score
TTAACGAA	0.0168
GAACTTAA	0.0786
ATCATTGA	-0.167
CTTCCGCC	0.256
ATGAGAGC	-0.118
GTATGACA	0.00517
CTCAGATA	-0.115
AACTTCGA	-0.0324
AAGTATGT	-0.268
CTTATTGC	0.0342
CAGGCGCA	-0.259
AATAACAT	0.071
AGAACGTG	-0.164
CAACCTTG	-0.0186
CGGTGGGC	0.19
AGCAGTGC	-0.207
TAGGCGGA	0.209
TTGCGCAA	-0.266
TAGGGTCA	-0.179
ACATCGAC	-0.0504
